Laboratory results as given in patent US11161864B2, “Sting agonists” (Venenum Biodesign, LLC, priority 2018, dated 2021).

Assays:
[1] = target: wildtype (WT) STING protein, THP1 Dual (WT) human cells (Homo sapiens (Human), UniProt Q86WV6, H232R); experiment: cell-based; conditions: for EC50: Human WT Agonist EC50, 5 hrs; for Emax: THP1-Dual, 5 h, read-out: Human WT Agonist Efficacy, 5 hrs
[2] = system: STING pathway, RAW-Dual Reporter cell line; experiment: cells; conditions: for Emax: read-out: Murine Agonist Efficacy, 5 hrs
[3] = target: HAQ STING protein, THP1 Dual (HAQ) human cells (Homo sapiens (Human), UniProt Q86WV6, G230A/H232R/R293Q/R71H); experiment: cell-based; conditions: for EC50: Human HAQ Agonist EC50, 5 hrs; for Emax: THP1-Dual, 5 h, read-out: Human HAQ Agonist Efficacy, 5 hrs
Chain of HAQ STING protein, THP1 Dual (HAQ) human cells (Q86WV6 whole entry R71H/G230A/H232R/R293Q): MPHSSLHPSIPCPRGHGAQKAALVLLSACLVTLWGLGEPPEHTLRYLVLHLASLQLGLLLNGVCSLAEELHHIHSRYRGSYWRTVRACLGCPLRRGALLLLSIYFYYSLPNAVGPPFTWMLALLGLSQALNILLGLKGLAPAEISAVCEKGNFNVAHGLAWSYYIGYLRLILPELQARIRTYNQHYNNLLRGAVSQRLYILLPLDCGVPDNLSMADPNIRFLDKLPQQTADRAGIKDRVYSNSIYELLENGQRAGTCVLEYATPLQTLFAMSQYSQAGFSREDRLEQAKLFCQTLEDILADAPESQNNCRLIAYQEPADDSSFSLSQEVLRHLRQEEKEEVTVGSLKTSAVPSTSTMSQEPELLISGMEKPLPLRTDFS

[4] = read-out: Murine Agonist EC50, 5 hrs
[5] = Mus musculus, 5 h, read-out: Murine Agonist EC50, 5 hrs

Chain of wildtype (WT) STING protein, THP1 Dual (WT) human cells (Q86WV6 whole entry H232R): as the sequence (Q86WV6 whole entry R71H/G230A/H232R/R293Q) above, with H71R, A230G, Q293R counted along it

SMILES	EC50 [1] [µM]	Emax [1] [%]	Emax ([2]; Mus musculus, 5 h) [%]	EC50 [2, 4] [µM]	EC50 [3] [µM]	Emax [3] [%]	EC50 [2, 5] [µM]	Murine Agonist Efficacy ([2]; 5 hrs) [%]
Nc1nc2ncn([C@@H]3O[C@@H]4COP(=O)(S)OCCn5c(nc6cc(Cl)cnc65)COP(=O)(S)O[C@@H]3[C@@H]4F)c2c(=O)[nH]1 (single isomer, unassigned) [Example 13B]	> 1000	< 100	> 100	10 to 99.9	10 to 99.9	< 100		
Nc1nc2c(ncn2[C@@H]2O[C@@H]3COP(=O)(S)OCCn4c(nc5cncnc54)COP(=O)(S)O[C@@H]2[C@H]3F)c(=O)[nH]1 (stereo partly drawn) [Example 25B, (1S,21R,23R,24S)-23-(2-Amino-6-oxo-6,9-dihydro-1H-purin-9-yl)-24-fluoro-3,18-disulfanyl-2,4,17,19,22-pentaoxa-7,10,12,14-tetraaza-3lambda5,18lambda5-diphosphatetracyclo[19.2.1.06,14.08,13]tetracosa-6,8,10,12-tetraene-3,18-dione]		< 100	< 100			< 100		
Nc1nc2c(ncn2[C@@H]2O[C@@H]3COP(=O)(S)OCCn4c(nc5cncnc54)COP(=O)(S)O[C@@H]2[C@H]3F)c(=O)[nH]1 (single isomer, unassigned) [Example 25C]	100 to 999			10 to 99.9	< 10			
Nc1nc2c(ncn2[C@@H]2O[C@@H]3COP(=O)(S)OCCn4c(nc5cncnc54)COP(=O)(O)O[C@@H]2[C@@H]3F)c(=O)[nH]1 (stereo partly drawn) [Example 6A, (1S,21R,23R,24R)-23-(2-Amino-6-oxo-6,9-dihydro-1H-purin-9-yl)-24-fluoro-3-hydroxy-18-sulfanyl-2,4,17,19,22-pentaoxa-7,10,12,14-tetraaza-3lambda5,18lambda5-diphosphatetracyclo[19.2.1.06,14.08,13]tetracosa-6,8(13),9,11-tetraene-3,18-dione]		< 100	> 100			< 100		
Nc1nc2c(ncn2[C@@H]2O[C@@H]3COP(=O)(S)OCCn4c(nc5cc(Cl)cnc54)COP(=O)(S)O[C@@H]2[C@@H]3F)c(=O)[nH]1 (stereo partly drawn) [Example 14A, (1S,21R,23R,24R)-23-(2-Amino-6-oxo-6,9-dihydro-1H-purin-9-yl)-10-chloro-24-fluoro-3,18-disulfanyl-2,4,17,19,22-pentaoxa-7,12,14-triaza-3lambda5,18lambda5-diphosphatetracyclo[19.2.1.06,14.08,13]tetracosa-6,8,10,12-tetraene-3,18-dione]		< 100	> 100			> 100		
Nc1nc2c(ncn2[C@@H]2O[C@@H]3COP(=O)(S)OCCn4nc(-c5ccncc5)nc4COP(=O)(S)O[C@@H]2[C@@H]3F)c(=O)[nH]1 (stereo partly drawn) [Example 34C, (1S,17R,19R,20R)-19-(2-Amino-6-oxo-6,9-dihydro-1H-purin-9-yl)-20-fluoro-8-(pyridin-4-yl)-3,14-disulfanyl-2,4,13,15,18-pentaoxa-7,9,10-triaza-3lambda5,14lambda5-diphosphatricyclo[15.2.1.06,10]icosa-6,8-diene-3,14-dione]		> 100	> 100			> 100		
Nc1nc2c(ncn2[C@@H]2O[C@@H]3COP(=O)(O)OCCn4c(nc5cncnc54)COP(=O)(S)O[C@@H]2[C@@H]3F)c(=O)[nH]1 (stereo partly drawn) [Example 5A, (1S,21R,23R,24R)-23-(2-Amino-6-oxo-6,9-dihydro-1H-purin-9-yl)-24-fluoro-18-hydroxy-3-sulfanyl-2,4,17,19,22-pentaoxa-7,10,12,14-tetraaza-3lambda5,18lambda5-diphosphatetracyclo[19.2.1.06,14.08,13]tetracosa-6,8(13),9,11-tetraene-3,18-dione]		< 100	> 100			< 100		
Nc1nc2c(ncn2[C@@H]2O[C@@H]3COP(=O)(S)OCCn4c(nc5cncnc54)COP(=O)(S)O[C@@H]2[C@H]3F)c(=O)[nH]1 (single isomer, unassigned) [Example 25D]	< 10	> 100	> 100	< 10	< 10	< 100		
Nc1nc2c(ncn2[C@@H]2O[C@@H]3COP(=O)(S)OCCn4c(nc5cncnc54)COP(=O)(S)O[C@@H]2C3)c(=O)[nH]1 (stereo partly drawn) [Example 22A, (1R,21S,23R)-23-(2-Amino-6-oxo-6,9-dihydro-1H-purin-9-yl)-3,18-disulfanyl-2,4,17,19,22-pentaoxa-7,10,12,14-tetraaza-3lambda5,18lambda5-diphosphatetracyclo[19.2.1.06,14.08,13]tetracosa-6,8,10,12-tetraene-3,18-dione]		< 100	> 100			> 100		
Nc1nc2c(ncn2[C@@H]2O[C@@H]3COP(=O)(S)OCCn4nc(-c5ccncc5)nc4COP(=O)(S)O[C@@H]2[C@@H]3F)c(=O)[nH]1 (single isomer, unassigned) [Example 34B]		< 100	< 100	100 to 999		< 100		
Nc1nc2c(ncn2[C@@H]2O[C@@H]3COP(=O)(S)OCCn4c(nc5cncnc54)COP(=O)(S)O[C@@H]2[C@@H]3F)c(=O)[nH]1 (single isomer, unassigned) [Example 1C]	< 10	> 100	> 100		< 10	> 100	< 10	
Nc1nc2c(ncn2[C@@H]2O[C@@H]3COP(=O)(S)OCCn4c(nc5cnc(C6CC6)nc54)COP(=O)(S)O[C@@H]2[C@@H]3F)c(=O)[nH]1 (single isomer, unassigned) [Example 12C]		< 100	< 100			< 100	< 10	
Nc1nc2c(ncn2[C@@H]2O[C@@H]3COP(=O)(S)OCCn4c(nc5cncnc54)COP(=O)(S)O[C@@H]2C3(F)F)c(=O)[nH]1 (stereo partly drawn) [Example 36D, (1S,21R,23R)-23-(2-Amino-6-oxo-6,9-dihydro-1H-purin-9-yl)-24,24-difluoro-3,18-disulfanyl-2,4,17,19,22-pentaoxa-7,10,12,14-tetraaza-3lambda5,18lambda5-diphosphatetracyclo[19.2.1.06,14.08,13]tetracosa-6,8,10,12-tetraene-3,18-dione]	10 to 99.9	< 100	< 100		< 10	> 100	< 10	
Nc1nc2c(ncn2[C@@H]2O[C@@H]3COP(=O)(S)OCCn4c(nc5cnccc54)COP(=O)(S)O[C@@H]2[C@@H]3F)c(=O)[nH]1 (stereo partly drawn) [Example 17C, (1S,21R,23R,24R)-23-(2-Amino-6-oxo-6,9-dihydro-1H-purin-9-yl)-24-fluoro-3,18-disulfanyl-2,4,17,19,22-pentaoxa-7,10,14-triaza-3lambda5,18lambda5-diphosphatetracyclo[19.2.1.06,14.08,13]tetracosa-6,8,10,12-tetraene-3,18-dione]		< 100	< 100			> 100		
Nc1nc2c(ncn2[C@@H]2O[C@@H]3COP(=O)(S)OCCn4c(nc5cncnc54)COP(=O)(S)O[C@@H]2C3)c(=O)[nH]1 (single isomer, unassigned) [Example 22B]		< 100	< 100	10 to 99.9		< 100		
Nc1nc2c(ncn2[C@@H]2O[C@@H]3COP(=O)(S)OCCn4nc(-c5ccncc5)nc4COP(=O)(S)O[C@@H]2[C@@H]3F)c(=O)[nH]1 (single isomer, unassigned) [Example 34D]				10 to 99.9				
Nc1nc2c(ncn2[C@@H]2O[C@@H]3COP(=O)(S)OCCn4nc(-c5cncs5)nc4COP(=O)(S)O[C@@H]2[C@@H]3F)c(=O)[nH]1 (single isomer, unassigned) [Example 16A]							< 10	
Nc1nc2c(ncn2[C@@H]2O[C@@H]3COP(=O)(S)OCCn4c(nc5cncnc54)COP(=O)(S)O[C@@H]2[C@@H]3O)c(=O)[nH]1 (single isomer, unassigned) [Example 15D]				< 10				
Nc1nc2c(ncn2[C@@H]2O[C@@H]3COP(=O)(O)OCCCn4c(nc5cncnc54)COP(=O)(O)O[C@@H]2[C@@H]3O)c(=O)[nH]1 [Example 2, (1R,22R,24R,25R)-24-(2-Amino-6-oxo-6,9-dihydro-1H-purin-9-yl)-3,19,25-trihydroxy-2,4,18,20,23-pentaoxa-710,122,14-tetraaza-3lambda5,19lambda5-diphosphatetracyclo[20.2.1.06,14.08,13]pentacosa-6,8(13),9,11-tetraene-3,19-dione]					100 to 999	> 100		
C[C@H]1Cn2c(nc3cncnc32)COP(=O)(S)O[C@@H]2[C@H](F)[C@@H](COP(=O)(S)O1)O[C@H]2n1cnc2c(=O)[nH]c(N)nc21 (single isomer, unassigned) [Example 33B]				100 to 999				<100
Nc1nc2c(ncn2[C@@H]2O[C@@H]3COP(=O)(O)OCCn4c(nc5cncnc54)COP(=O)(S)O[C@@H]2[C@@H]3F)c(=O)[nH]1 (single isomer, unassigned) [Example 5A]							< 10	
Nc1nc2c(ncn2[C@@H]2O[C@@H]3COP(=O)(S)OCCn4c(nc5cc(Cl)cnc54)COP(=O)(S)O[C@@H]2[C@@H]3F)c(=O)[nH]1 (single isomer, unassigned) [Example 14A]							< 10	
Nc1nc2c(ncn2[C@@H]2O[C@@H]3COP(=O)(O)OCCn4c(nc5cncnc54)COP(=O)(S)O[C@@H]2[C@@H]3F)c(=O)[nH]1 (single isomer, unassigned) [Example 5B]				10 to 99.9				
Nc1nc2c(ncn2[C@@H]2O[C@@H]3COP(=O)(S)OCCn4c(nc5cnc(C6CC6)nc54)COP(=O)(S)O[C@@H]2[C@@H]3F)c(=O)[nH]1 (single isomer, unassigned) [Example 12D]				10 to 99.9				

Where two headings read alike, the source gives them in different places.
